Reference: PubChem BioAssay AID488969 (Vanderbilt High Throughput Screening Facility, 2010)
The full ranking holds about 110,000 compounds; the median of “z-score” is about -0.1, and the highest 2% start at about 2. The list shows a part of the results.

Each compound was assayed against Metabotropic glutamate receptor 8 (Rattus norvegicus) (UniProt P70579) (assay: mGluR8 Gi/Go-coupled signaling modulation – cell-based, rat, thallium flux, HTS, primary screen (AID 488969)). Details: HEK293 rat mGluR8, GIRK (G protein-gated inwardly rectifying potassium channel) thallium flux, FluoZin2; at 10 µM; stronger effect = higher value; submaximal glutamate (EC20) added with thallium.
Sequence of UniProt P70579 (P70579 whole entry, looked up): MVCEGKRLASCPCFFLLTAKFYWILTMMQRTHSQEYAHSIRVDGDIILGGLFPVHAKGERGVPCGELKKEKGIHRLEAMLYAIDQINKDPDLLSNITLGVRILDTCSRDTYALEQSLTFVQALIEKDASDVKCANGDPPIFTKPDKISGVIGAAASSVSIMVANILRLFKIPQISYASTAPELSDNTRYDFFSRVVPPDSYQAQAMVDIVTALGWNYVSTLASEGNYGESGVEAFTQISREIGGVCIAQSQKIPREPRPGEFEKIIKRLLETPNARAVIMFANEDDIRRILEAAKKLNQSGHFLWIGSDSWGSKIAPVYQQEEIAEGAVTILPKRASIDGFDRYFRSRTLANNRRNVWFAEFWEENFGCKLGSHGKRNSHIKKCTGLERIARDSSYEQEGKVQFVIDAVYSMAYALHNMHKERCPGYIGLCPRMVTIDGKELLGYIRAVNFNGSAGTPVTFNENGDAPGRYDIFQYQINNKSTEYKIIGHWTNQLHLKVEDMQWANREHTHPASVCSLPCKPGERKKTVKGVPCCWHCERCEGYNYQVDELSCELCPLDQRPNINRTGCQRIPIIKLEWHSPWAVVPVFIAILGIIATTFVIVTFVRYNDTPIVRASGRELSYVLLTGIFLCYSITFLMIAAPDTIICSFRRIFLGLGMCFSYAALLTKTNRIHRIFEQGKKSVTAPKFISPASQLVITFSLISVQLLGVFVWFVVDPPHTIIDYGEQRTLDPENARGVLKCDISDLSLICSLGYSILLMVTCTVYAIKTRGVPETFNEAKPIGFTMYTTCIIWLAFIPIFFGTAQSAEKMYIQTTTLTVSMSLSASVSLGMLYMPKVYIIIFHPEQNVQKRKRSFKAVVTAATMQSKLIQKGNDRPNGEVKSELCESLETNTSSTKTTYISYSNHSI

Compared with `CCOC(=O)c1c(C)[nH]c(C)c1C(=O)COC(=O)[C@@H](NC(=O)c1ccccc1OCC)C(C)C`, `CCOc1ccc(C(=O)OCC(=O)Nc2cc(C)on2)cc1OCC` is lower in z-score: 0.596 for the first, 0.224 for the second.

Compared with `CCn1c(SCc2ccc(C)cc2)nnc1-c1nn(-c2ccccc2)ccc1=O`, `CCOc1ccc2ccccc2c1C(=O)N1CCN(c2ccccc2)CC1` is higher in z-score: -0.34 for the first, 0.245 for the second.

Going from `Cc1cc(C(=O)NNC(=S)NC(C)c2ccccc2)c2ccccc2n1` (stereo unspecified) to `CCn1c(-c2ccccc2)c(C(=O)O)c2ccccc21`, the z-score falls from 0.0101 to -0.229.

Compared with `COC(=O)C1=C(C)N(c2ccc(S(N)(=O)=O)cc2)C(=O)C1`, `COc1ccc(NC(=O)C2CCCN2S(=O)(=O)c2ccc(F)cc2)cc1` (stereo unspecified) is lower in z-score: 0.506 for the first, -0.0947 for the second.

First: CN(Cc1cccs1)C(=O)COc1cccc(-n2cnnn2)c1
Second: CN(C)/C=N/c1ncc(C(=O)c2ccc3ccccc3c2)s1
The z-score of the first is higher: -0.228 for the first, -0.355 for the second.

First: CN(c1cccc(NC(=O)c2ccc(Cl)c(S(=O)(=O)Nc3ccccc3)c2)c1)S(C)(=O)=O
Second: CN(C)c1ccc(NC(=O)c2ccncc2)c2ccccc12
The z-score of the first is higher: 0.229 for the first, -0.372 for the second.

Going from `O=C(NC1CCCCC1)C12CC3CC(C1)CC(n1cncn1)(C3)C2` to `O=C(CSc1nnc(-c2ccccc2)n1C1CCCCC1)N1CCCC1`, the z-score rises from -0.163 to 0.42.

Going from `Cc1nn(Cc2c(Cl)cccc2Cl)c(Cl)c1/C=N/NC(=O)c1cccnc1` to `FC(F)(F)c1nc2ccccc2nc1N/N=C/c1c(Cl)cccc1Cl`, the z-score rises from -0.656 to -0.227.

Compared with `CCN(CC)c1ccc2c(c1)C(=O)N(C)C2=O`, `CCN(CC)c1ccc(NC(=O)Cn2c(C(C)NC(=O)c3ccccc3)nc3ccccc32)cc1` (stereo unspecified) is lower in z-score: 0.142 for the first, -0.332 for the second.

First: Cc1cc2nc(SCCOC(=O)Nc3cccc(Cl)c3)nc(C)c2cc1C
Second: CCn1c(C)cc(/C=C2\NC(=O)N(CC(=O)Nc3cccc(C)c3)C2=O)c1C
The z-score of the first is lower: -0.19 for the first, -0.0332 for the second.

First: Cc1cc(Cl)ccc1OCC(=O)NCCC(=O)O
Second: COc1cc(C(=O)NCCC(C)C)ccc1OCc1ccc(Cl)cc1Cl
The z-score of the first is higher: 0.939 for the first, 0.00586 for the second.

Compared with `CCOC(=O)CN1C(=O)C(Sc2nnc(-c3ccccc3OC)s2)CCc2ccccc21` (stereo unspecified), `O=C(OCC(=O)N1CCc2ccccc21)c1cccc(S(=O)(=O)N2CCCc3ccccc32)c1` is lower in z-score: 0.287 for the first, -0.134 for the second.

Compared with `O=C1C(Cl)=C(N2CCCCCC2)C(=O)N1c1ccccc1`, `COc1ccc2[nH]cc(C(=O)N3CCCCC3)c(=O)c2c1` is higher in z-score: -0.402 for the first, -0.07 for the second.

Going from `Cc1c(C(=O)N2CCCCC2)nnn1-c1nonc1N` to `Cc1cccc(CN2CCN(CC(=O)N3CCCC3)C2=O)c1`, the z-score rises from -0.565 to -0.106.

Going from `CCCC(=O)C1=C(O)C(C(=O)OC)C(C)(C)CC1=NC(C)(C)C` (stereo unspecified) to `CC(C)(C)NC(=O)CC(CC(=O)O)c1ccccc1` (stereo unspecified), the z-score falls from -0.418 to -0.6.

Compared with `COc1cc(S(=O)(=O)N2CCCCC2)ccc1NC(=O)/C=C/c1ccccc1`, `CN(C1CCCCC1)S(=O)(=O)c1ccc(NC(=O)c2ccc(Br)o2)cc1` is lower in z-score: -0.398 for the first, -0.647 for the second.

First: Cc1ccccc1N=CC=C1OC(C)(C)C(C)(C)O1
Second: Cc1cc(O)ccc1C1(c2ccc(O)cc2C)OC(=O)c2ccccc21
The z-score of the first is higher: 0.193 for the first, -1.95 for the second.

Compared with `Cc1ccc(CNc2ncnc3cc(Cl)ccc23)o1`, `CC(C)(C)NC(=O)Cn1nnc(-c2ccc(Cl)cc2)n1` is lower in z-score: 0.539 for the first, -0.11 for the second.

First: N#CC(/C(=N/S(=O)(=O)c1cccs1)c1ccccc1)c1nc2ccccc2[nH]1 (stereo unspecified)
Second: Cn1c(SC(C(=O)Nc2ccc(F)cc2)c2ccccc2)nc2ccccc21 (stereo unspecified)
The z-score of the first is lower: -0.494 for the first, 0.038 for the second.

First: COc1ccccc1/C=C1\SC(=S)N(CCC(=O)NC2=NCCS2)C1=O
Second: CCc1nnc(NC(=O)C2COc3ccccc3O2)s1 (stereo unspecified)
The z-score of the first is lower: -0.0872 for the first, 0.0066 for the second.

Going from `FC(F)(F)c1nnc2c(Sc3ccccc3)nc3ccccc3n12` to `O=C(CCc1[nH]c2ccccc2c1Sc1ccccc1)NCCO`, the z-score rises from 0.155 to 1.09.

Compared with `CCOC(=O)C1=C(N)n2c(s/c(=C\c3ccco3)c2=O)=C(C(=O)OC(C)C)C1c1ccco1` (stereo unspecified), `CCc1nc(SCC(=O)NCc2ccco2)c2c(=O)n(C)c(=O)n(C)c2n1` is higher in z-score: -0.118 for the first, 0.725 for the second.

Compared with `Cn1c(=O)c2c(ncn2CC(=O)OCC(=O)Nc2cc(Cl)ccc2Cl)n(C)c1=O`, `C/C(N)=C(/C#N)C(=O)CSc1nc2ccccc2c(=O)n1CCCOC(C)C` is higher in z-score: 0.0725 for the first, 0.998 for the second.

Going from `Cc1nn(CC#N)c(=O)n1-c1ccc(F)cc1` to `CCSC1(SCC)N=C(N)C2(C#N)C(c3ccc(F)cc3)C12C#N` (stereo unspecified), the z-score falls from 0.483 to -0.269.

First: CCc1nc(Cl)c(C#N)c2c1CSC(C)(C)C2
Second: COc1ccc2c(c1)nc(SCC(=O)C(C)(C)C)n2C
The z-score of the first is lower: -1.75 for the first, -0.0964 for the second.

First: CC1CC(C)CN(C(=O)C(NS(=O)(=O)c2ccc(Br)s2)c2ccccc2)C1 (stereo unspecified)
Second: O=C(COC(=O)c1c2c(nc3ccccc13)CCCC2)c1ccc(Br)s1
The z-score of the first is higher: 0.702 for the first, -0.0387 for the second.

Compared with `CN(/C=C/C(=O)C(F)(F)C(F)(F)F)Cc1ccccc1`, `Cc1nc2ccccc2cc1C(=O)N/N=C/c1ccco1` is higher in z-score: 0.0741 for the first, 0.211 for the second.

First: Cc1cccc(-c2cc3nc4c(c(N5CCOCC5)n3n2)CCCC4)c1
Second: O=C(CSc1nnc2c3c4c(sc3ncn12)CCCC4)NCc1ccco1
The z-score of the first is higher: -0.292 for the first, -1.13 for the second.

Going from `CCCOc1ccc(-c2cnc(N)s2)cc1` to `Cc1cc(COc2ccccc2OCCN2CCN(C)CC2)no1`, the z-score rises from 0.0244 to 0.0946.

Going from `CC(=O)CCc1c(C)[nH]c2ccccc2c1=O` to `Cc1cc(=O)oc2cc(OS(C)(=O)=O)ccc12`, the z-score falls from -0.0605 to -0.824.

Compared with `O=C(c1cc([N+](=O)[O-])cc([N+](=O)[O-])c1)N(c1ccccn1)c1ccccn1`, `OC(CNCc1ccccn1)c1ccccc1` (stereo unspecified) is lower in z-score: -0.0137 for the first, -0.286 for the second.

Compared with `COc1ccc([N+](=O)[O-])c2c(=O)ccoc12`, `O=C1CC(=O)N(Cc2ccco2)C(=S)N1` is higher in z-score: -0.518 for the first, -0.111 for the second.

Compared with `Cc1ccc(-c2nnc(SCC(=O)NC3CCS(=O)(=O)C3)nc2-c2ccc(C)cc2)cc1` (stereo unspecified), `Cc1ccc(-c2noc(CCC(=O)NCC3CCN(Cc4cccc(C)c4)CC3)n2)cc1` is higher in z-score: -0.133 for the first, 2.64 for the second.

Compared with `Nc1nc(C23CC4CC(CC(C4)C2)C3)cs1`, `CCN1CCCC1CNC(=O)Cn1cnc2sc(C)c(S(=O)(=O)N3CCC(C)CC3)c2c1=O` (stereo unspecified) is higher in z-score: -0.25 for the first, -0.21 for the second.

First: COc1ccc(CNC(=O)C(c2ccncc2)N(C(=O)Cc2cccs2)c2ccccc2)cc1 (stereo unspecified)
Second: CCOc1cc(CNc2ccc3c(c2)OCCO3)cc(Br)c1OC
The z-score of the first is lower: -0.236 for the first, 1.22 for the second.

`CCN1CCN(CCNC(=O)c2cn(C(C)c3ccccc3F)nn2)CC1` (stereo unspecified) showed a z-score of 0.0678.
